From US20250268979A1, “COMBINATION OF MACROCYCLIC CFTR MODULATORS WITH CFTR CORRECTORS AND / OR CFTR POTENTIATORS” (Idorsia Pharmaceuticals Ltd, priority 2022, published 2025)
Like-named read-outs stand apart in the source and are kept apart here.

How the values were obtained:
[1] = target: T1, F508del-CFTR (Homo sapiens, UniProt P13569, DEL508-508); test: cell-based; conditions: for Emax: U2OS
[2] = target: T2, human F508del-CFTR chloride channel (Homo sapiens, UniProt P13569, DEL508-508); test: Combination efficacy experiment: restauration of F508del-CFTR function in recombinant U2OS cell line (YFP quenching assay)
[3] = target: T2, human F508del-CFTR chloride channel; format: cell-based; set-up: host or cells: U2OS
Procedure: Final DMSO concentration in the assay is 0.34%. […] The next day, the cell plates are incubated for 2 h at RT in the dark. […] Measured values are expressed as fold-change versus the baseline value (absence of CFTR correctors=vehicle treatment).
(type-I corrector+type-III corrector). […] Error bars represent the standard error of the mean.
Error bars represent the standard error of the mean.

[4] = target: T1, F508del-CFTR

EC50 [1] [nM] | Emax [1] [%] | Compound | also measured
263 | 490 | COc1noc(CCNC(=O)[C@@H]2CC(=O)N(C)[C@@H](CC(C)C)C(=O)N(C)[C@H](CC(F)(F)F)C(=O)N[C@H](Cc3ccccc3)COc3ccc4cnc(C)cc4c3C(=O)N2)n1 [Example 1, (3S,7S,10R,13R)-13-benzyl-7-isobutyl-N-(2-(3-methoxy-1,2,4-oxadiazol-5-yl)ethyl)-6,9,20-trimethyl-1,5,8,11-tetraoxo-10-(2,2,2-trifluoroethyl)-1,2,3,4,5,6,7,8,9,10,11,12,13,14-tetradecahydro-[1]oxa[4,7,10,14]tetraazacycloheptadecino[16,17-f]isoquinoline-3-carboxamide] | 
275 | 459 | COc1cc(CCNC(=O)[C@@H]2CC(=O)N(C)[C@@H](CC(C)C)C(=O)N(C)[C@H](CC(F)F)C(=O)N[C@H](Cc3ccccc3)COc3ccc4cnc(C)cc4c3C(=O)N2)on1 [Example 26, (3S,7S,10R,13R)-13-benzyl-10-(2,2-difluoroethyl)-7-isobutyl-N-(2-(3-methoxyisoxazol-5-yl)ethyl)-6,9,20-trimethyl-1,5,8,11-tetraoxo-1,2,3,4,5,6,7,8,9,10,11,12,13,14-tetradecahydro-[1]oxa[4,7,10,14]tetraazacycloheptadecino[16,17-f]isoquinoline-3-carboxamide] | 
273 | 452 | COc1noc(CCNC(=O)[C@@H]2CC(=O)N(C)[C@@H](CC(C)C)C(=O)N(C)[C@H](CC(F)F)C(=O)N[C@H](Cc3ccccc3)COc3ccc4ncc(F)cc4c3C(=O)N2)n1 [Example 30, (3S,7S,10R,13R)-13-benzyl-10-(2,2-difluoroethyl)-20-fluoro-7-isobutyl-N-(2-(3-methoxy-1,2,4-oxadiazol-5-yl)ethyl)-6,9-dimethyl-1,5,8,11-tetraoxo-1,2,3,4,5,6,7,8,9,10,11,12,13,14-tetradecahydro-[1]oxa[4,7,10,14]tetraazacycloheptadecino[16,17-f]quinoline-3-carboxamide] | 
67 | 431 | COc1noc(CCNC(=O)[C@@H]2CC(=O)N(C)[C@@H](CC(C)C)C(=O)N(C)[C@H](CC(F)F)C(=O)N[C@H](Cc3ccccc3)COc3ccc4ncc(F)cc4c3C(=O)N2)c1F [Example 38, (3S,7S,10R,13R)-13-benzyl-10-(2,2-difluoroethyl)-20-fluoro-N-(2-(4-fluoro-3-methoxyisoxazol-5-yl)ethyl)-7-isobutyl-6,9-dimethyl-1,5,8,11-tetraoxo-1,2,3,4,5,6,7,8,9,10,11,12,13,14-tetradecahydro-[1]oxa[4,7,10,14]tetraazacycloheptadecino[16,17-f]quinoline-3-carboxamide] | 
601 | 482 | COc1cc(CCNC(=O)[C@@H]2CC(=O)N(C)[C@@H](CC(C)C)C(=O)N(C)[C@H](CC(F)(F)F)C(=O)N[C@H](Cc3ccccc3)COc3ccc4nc(C)oc4c3C(=O)N2)on1 [Example 42, (8R,11R,14S,18S)-8-benzyl-14-isobutyl-N-(2-(3-methoxyisoxazol-5-yl)ethyl)-2,12,15-trimethyl-10,13,16,20-tetraoxo-11-(2,2,2-trifluoroethyl)-7,8,9,10,11,12,13,14,15,16,17,18,19,20-tetradecahydrooxazolo[4′,5′:5,6]benzo[1,2-p][1]oxa[4,7,10,14]tetraazacycloheptadecine-18-carboxamide] | 
 |  | Cc1nn(C)cc1S(=O)(=O)NC(=O)c1ccc(-n2ccc(OCC(C)(C)C(F)(F)F)n2)nc1N1C[C@@H](C)CC1(C)C [elexacaftor, N-(1,3-dimethyl-1H-pyrazole-4-sulfonyl)-6-[3-(3,3,3-trifluoro-2,2-dimethylpropoxy)-1H-pyrazol-1-yl]-2-[(4S)-2,2,4-trimethylpyrrolidin-1-yl]pyridine-3-carboxamide] | F508del-CFTR cell surface expression (FIG. 6), type-III corrector added to type-III corrector ([3]; 2 uM elexacaftor added to 5 uM PTI-801): does not lead to additive effects
 |  | (3S,7S,10R,13R)-13-benzyl-20-fluoro-7-isobutyl-N-(2-(3-methoxyisoxazol-5-yl)ethyl)-6,9,10-trimethyl-1,5,8,11-tetraoxo-1,2,3,4,5,6,7,8,9,10,11,12,13,14-tetradecahydro-[1]oxa[4,7,10,14]tetraazacycloheptadecino[16,17-f]quinoline-3-carboxamide [Example 10] | EC50 ([4]; U2OS cells, 16 h compound incubation, geomean values): 156 nM; Emax ([4]; in relation to Emax of lumacaftor = 100%, arithmetic mean values): 337%

Compound | EC50 [1] [nM] | Emax [1] [%] | also measured
COc1noc(CCNC(=O)[C@@H]2CC(=O)N(C)[C@@H](CC(C)C)C(=O)N(C)[C@H](CC(F)(F)F)C(=O)N[C@H](Cc3ccccc3)COc3ccc4ncc(F)cc4c3C(=O)N2)n1 [Example 3, (3S,7S,10R,13R)-13-benzyl-20-fluoro-7-isobutyl-N-(2-(3-methoxy-1,2,4-oxadiazol-5-yl)ethyl)-6,9-dimethyl-1,5,8,11-tetraoxo-10-(2,2,2-trifluoroethyl)-1,2,3,4,5,6,7,8,9,10,11,12,13,14-tetradecahydro-[1]oxa[4,7,10,14]tetraazacycloheptadecino[16,17-f]quinoline-3-carboxamide] | 146 | 460 | F508del-CFTR function, YFP quenching (FIG. 4) ([2]; 400 nM added to basal Corrector 4a (5 uM) and/or navocaftor (50 nM)): enhances F508del-CFTR function on top of all basal treatments; F508del-CFTR function, YFP quenching (FIG. 5) ([2]; 400 nM added to basal elexacaftor (2 uM) and/or ivacaftor (2 nM)): enhances F508del-CFTR function on top of all basal treatments; F508del-CFTR function, YFP quenching (FIG. 2) ([2]; 400 nM added to basal galicaftor (1 uM) and/or navocaftor (50 nM)): enhances F508del-CFTR function on top of all basal treatments; F508del-CFTR function, YFP quenching (FIG. 3) ([2]; 400 nM added to basal tezacaftor (2 uM) and/or ivacaftor (2 nM)): enhances F508del-CFTR function on top of all basal treatments; F508del-CFTR cell surface expression (FIG. 6) ([3]; 200 nM added to basal 2 uM elexacaftor or 5 uM PTI-801, 16 h): enhances F508del-CFTR surface expression on top of these basal treatments; F508del-CFTR cell surface expression (FIG. 1) ([3]; 200 nM added to basal 2 uM tezacaftor, 0.2 uM galicaftor, 5 uM Corrector 4a, 2 uM elexacaftor or [2 uM tezacaftor+2 uM elexacaftor], 16 h): enhances F508del-CFTR surface expression on top of all basal treatments
